# Experimental data reported in the supplement of paper PMC8728848.
# The list shows a part of the results.
# B1: CLEC5A (Homo sapiens), Q9NY25 (protein)
# chain: MNWHMIISGLIVVVLKVVGMTLFLLYFPQIFNKSNDGFTTTRSYGTVSQIFGSSSPSPNGFITTRSYGTVCPKDWEFYQARCFFLSTSESSWNESRDFCKGKGSTLAIVNTPEKLKFLQDITDAEKYFIGLIYHREEKRWRWINNSVFNGNVTNQNQNFNCATIGLTKTFDAASCDISYRRICEKNAK
# What was measured:
# Experiment in all cases: glycan array binding signal (z-score within array); higher = stronger binding
# Settings in all cases: glycan notation: IUPAC condensed, linker removed
# [1] = target: GlcNAc(b1-4)GlcNAc(b1-4)GlcNAc(b1-4)GlcNAc(b1-4)GlcNAc
# In short: (§1)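 Glycan array data came from 3228 arrays in the Consortium for Functional Glycomics database, and only arrays with an available protein sequence were kept. Glycan names were put into IUPAC-condensed notation, and columns mapping to the same glycan were averaged. The binding signal is a within-array Z-score, averaged across arrays of one protein sequence run at different concentrations or buffers and across linkers. A negative Z-score can be read as non-binding.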
# [2] = target: GlcNAc(b1-4)GlcNAc(b1-4)GlcNAc(b1-4)GlcNAc(b1-4)GlcNAc(b1-4)GlcNAc
# In short: as §1
# [3] = target: GlcNAc(b1-4)[GlcNAc(b1-6)]GalNAc
# In short: as §1
# [4] = target: GlcNAc(b1-6)Gal(b1-4)GlcNAc
# In short: as §1
# GlcNAc(b1-6)GalNAc = target: GlcNAc(b1-6)GalNAc
# In short: as §1
# GlcNAc3Prop(b1-4)GlcNAc = target: GlcNAc3Prop(b1-4)GlcNAc
# In short: as §1
# [5] = target: GlcNAc6S(b1-3)Gal(b1-4)GlcNAc
# In short: as §1
# [6] = target: HexA(a1-3)GalNAc4S(b1-4)GlcA(b1-3)GalNAc4S
# In short: as §1
# [7] = target: HexA(a1-3)GalNAc4S(b1-4)GlcA(b1-3)GalNAc4S(b1-4)GlcA(b1-3)GalNAc4S(b1-4)GlcA(b1-3)GalNAc4S(b1-4)GlcA(b1-3)GalNAc4S(b1-4)GlcA(b1-3)GalNAc4S(b1-4)GlcA(b1-3)GalNAc4S
# In short: as §1
# [8] = target: HexA(a1-3)GalNAc4S(b1-4)IdoA(a1-3)GalNAc4S
# In short: as §1
# [9] = target: HexA(a1-3)GalNAc4S(b1-4)IdoA(a1-3)GalNAc4S(b1-4)IdoA(a1-3)GalNAc4S(b1-4)IdoA(a1-3)GalNAc4S(b1-4)IdoA(a1-3)GalNAc4S(b1-4)IdoA(a1-3)GalNAc4S(b1-4)IdoA(a1-3)GalNAc4S
# In short: as §1
# [10] = target: HexA(a1-3)GalNAc6S(b1-4)GlcA(b1-3)GalNAc6S
# In short: as §1
# [11] = target: HexA(a1-3)GalNAc6S(b1-4)GlcA(b1-3)GalNAc6S(b1-4)GlcA(b1-3)GalNAc6S(b1-4)GlcA(b1-3)GalNAc6S(b1-4)GlcA(b1-3)GalNAc6S(b1-4)GlcA(b1-3)GalNAc6S(b1-4)GlcA(b1-3)GalNAc6S
# In short: as §1
# HexA2S(a1-4)GlcNS6S = target: HexA2S(a1-4)GlcNS6S
# In short: as §1
# Kdn(a2-3)Gal(b1-3)GalNAc = target: Kdn(a2-3)Gal(b1-3)GalNAc
# In short: as §1
# [12] = target: Kdn(a2-3)Gal(b1-3)GalNAc(b1-4)[Kdn(a2-3)]Gal(b1-4)Glc
# In short: as §1
# Kdn(a2-3)Gal(b1-3)GlcNAc = target: Kdn(a2-3)Gal(b1-3)GlcNAc
# In short: as §1
# Kdn(a2-3)Gal(b1-4)Glc = target: Kdn(a2-3)Gal(b1-4)Glc
# In short: as §1
# Kdn(a2-3)Gal(b1-4)GlcNAc = target: Kdn(a2-3)Gal(b1-4)GlcNAc
# In short: as §1
# [13] = target: Kdn(a2-3)Gal(b1-4)[Fuc(a1-3)]GlcNAc
# In short: as §1
# [14] = target: Kdn(a2-3)Gal(b1-4)[Fuc(a1-3)]GlcNAc(b1-3)Gal
# In short: as §1
# [15] = target: Kdn(a2-3)Gal(b1-4)[Fuc(a1-3)]GlcNAc(b1-3)Gal(b1-4)Glc
# In short: as §1
# [16] = target: Kdn(a2-3)Gal(b1-4)[Rha(a1-3)]GlcNAc(b1-3)Gal(b1-4)Glc
# In short: as §1
# [17] = target: Kdn(a2-3)[GalNAc(b1-4)]Gal(b1-4)Glc
# In short: as §1
# Kdn(a2-6)Gal = target: Kdn(a2-6)Gal
# In short: as §1
# Kdn(a2-6)Gal(b1-4)GlcNAc = target: Kdn(a2-6)Gal(b1-4)GlcNAc
# In short: as §1
# Man(a1-2)Man = target: Man(a1-2)Man
# In short: as §1
# [18] = target: Man(a1-2)Man(a1-2)Man(a1-3)Man
# In short: as §1
# [19] = target: Man(a1-2)Man(a1-2)Man(a1-3)[Man(a1-2)Man(a1-3)[Man(a1-2)Man(a1-6)]Man(a1-6)]Man(b1-4)GlcNAc(b1-4)GlcNAc
# In short: as §1
# [20] = target: Man(a1-2)Man(a1-2)Man(a1-3)[Man(a1-2)Man(a1-6)[Man(a1-3)]Man(a1-6)]Man(b1-4)GlcNAc(b1-4)GlcNAc
# In short: as §1
# [21] = target: Man(a1-2)Man(a1-2)Man(a1-3)[Man(a1-3)[Man(a1-6)]Man(a1-6)]Man(b1-4)GlcNAc(b1-4)GlcNAc
# In short: as §1
# [22] = target: Man(a1-2)Man(a1-2)Man(a1-6)[Man(a1-3)]Man
# In short: as §1
# Man(a1-2)Man(a1-3)Man = target: Man(a1-2)Man(a1-3)Man
# In short: as §1
# [23] = target: Man(a1-2)Man(a1-3)[Man(a1-2)Man(a1-6)[Man(a1-3)]Man(a1-6)]Man(b1-4)GlcNAc(b1-4)GlcNAc
# In short: as §1
# [24] = target: Man(a1-2)Man(a1-3)[Man(a1-2)Man(a1-6)]Man
# In short: as §1
# [25] = target: Man(a1-2)Man(a1-3)[Man(a1-2)Man(a1-6)]Man(a1-6)[Man(a1-2)Man(a1-2)Man(a1-3)]Man
# In short: as §1
# [26] = target: Man(a1-2)Man(a1-3)[Man(a1-2)Man(a1-6)]Man(a1-6)[Man(a1-2)Man(a1-2)Man(a1-3)]Man(b1-4)GlcNAc(b1-4)GlcNAc
# In short: as §1
# [27] = target: Man(a1-2)Man(a1-3)[Man(a1-3)[Man(a1-6)]Man(a1-6)]Man(b1-4)GlcNAc(b1-4)GlcNAc
# In short: as §1
# [28] = target: Man(a1-2)Man(a1-3)[Man(a1-6)]Man(a1-6)[Man(a1-2)Man(a1-3)]Man(b1-4)GlcNAc(b1-4)GlcNAc
# In short: as §1
# [29] = target: Man(a1-2)Man(a1-6)[Man(a1-3)]Man(a1-6)[Man(a1-2)Man(a1-2)Man(a1-3)]Man
# In short: as §1
# [30] = target: Man(a1-2)Man(a1-6)[Man(a1-3)]Man(a1-6)[Man(a1-2)Man(a1-2)Man(a1-3)]Man(b1-4)GlcNAc(b1-4)GlcNAc
# In short: as §1
# Man(a1-3)Man = target: Man(a1-3)Man
# In short: as §1
# [31] = target: Man(a1-3)Man(a1-6)[Man(a1-3)]Man(b1-4)GlcNAc(b1-4)GlcNAc
# In short: as §1
# Man(a1-3)Man(b1-4)GlcNAc = target: Man(a1-3)Man(b1-4)GlcNAc
# In short: as §1
# Man(a1-3)[Man(a1-6)]Man = target: Man(a1-3)[Man(a1-6)]Man
# In short: as §1
binder,measurement,setting,value
B1,glycan array binding signal (z-score),[1],-0.01
same,glycan array binding signal (z-score),[2],-0.389
same,glycan array binding signal (z-score),[3],-0.073
same,glycan array binding signal (z-score),[4],-0.037
same,glycan array binding signal (z-score),GlcNAc(b1-6)GalNAc,0.055
same,glycan array binding signal (z-score),GlcNAc3Prop(b1-4)GlcNAc,-1.36
same,glycan array binding signal (z-score),[5],0.188
same,glycan array binding signal (z-score),[6],-0.32
same,glycan array binding signal (z-score),[7],-0.32
same,glycan array binding signal (z-score),[8],0.066
same,glycan array binding signal (z-score),[9],0.644
same,glycan array binding signal (z-score),[10],-0.32
same,glycan array binding signal (z-score),[11],1.03
same,glycan array binding signal (z-score),HexA2S(a1-4)GlcNS6S,-0.32
same,glycan array binding signal (z-score),Kdn(a2-3)Gal(b1-3)GalNAc,0.745
same,glycan array binding signal (z-score),[12],-0.32
same,glycan array binding signal (z-score),Kdn(a2-3)Gal(b1-3)GlcNAc,0.076
same,glycan array binding signal (z-score),Kdn(a2-3)Gal(b1-4)Glc,-0.175
same,glycan array binding signal (z-score),Kdn(a2-3)Gal(b1-4)GlcNAc,-0.343
same,glycan array binding signal (z-score),[13],0.14
same,glycan array binding signal (z-score),[14],-0.32
same,glycan array binding signal (z-score),[15],-0.175
same,glycan array binding signal (z-score),[16],-0.32
same,glycan array binding signal (z-score),[17],-0.32
same,glycan array binding signal (z-score),Kdn(a2-6)Gal,-0.32
same,glycan array binding signal (z-score),Kdn(a2-6)Gal(b1-4)GlcNAc,-0.153
same,glycan array binding signal (z-score),Man(a1-2)Man,1.03
same,glycan array binding signal (z-score),[18],-0.201
same,glycan array binding signal (z-score),[19],-0.127
same,glycan array binding signal (z-score),[20],-0.32
same,glycan array binding signal (z-score),[21],-0.127
same,glycan array binding signal (z-score),[22],-0.122
same,glycan array binding signal (z-score),Man(a1-2)Man(a1-3)Man,0.069
same,glycan array binding signal (z-score),[23],-0.32
same,glycan array binding signal (z-score),[24],-0.192
same,glycan array binding signal (z-score),[25],0.057
same,glycan array binding signal (z-score),[26],-0.416
same,glycan array binding signal (z-score),[27],0.933
same,glycan array binding signal (z-score),[28],-0.185
same,glycan array binding signal (z-score),[29],-0.249
same,glycan array binding signal (z-score),[30],-0.343
same,glycan array binding signal (z-score),Man(a1-3)Man,-0.127
same,glycan array binding signal (z-score),[31],-0.32
same,glycan array binding signal (z-score),Man(a1-3)Man(b1-4)GlcNAc,-0.32
same,glycan array binding signal (z-score),Man(a1-3)[Man(a1-6)]Man,-0.249
